{"source": "PubChem BioAssay AID1189", "about": "(EPA DSSTox, 2008)", "assay": "DSSTox (CPDBAS) Carcinogenic Potency Database Summary SingleCellCall Results", "conditions": "animal chronic carcinogenicity bioassays, CPDB summary call", "excerpt": "The Carcinogenic Potency Database (CPDB) is a unique and widely used international resource of the results of over 6500 chronic, long-term animal cancer tests on over 1500 chemical substances. The CPDB provides easy access to the bioassay literature, with qualitative and quantitative analyses of both positive and negative experiments that have been published over the past 50 years in the general literature and by the National Cancer Institute/National Toxicology Program. The CPDB standardizes the diverse literature of cancer bioassays that vary widely in protocol, histopathological examination and nomenclature, and in the published author's choices of what information to provide in their papers. Results are reported in the CPDB for tests in rats, mice, hamsters, dogs, and nonhuman primates, and are based on the most positive result among all experiments for each sex-species. The DSSTox CPDBAS (all species) file incorporates data from the CPDB Summary Tables for the full list of over 1500 chemical substances tested in at least one species. A summary SingleCellCall, based on experimental bioassay results of one or more species, is provided for the entire DSSTox CPDBAS file (see Source URL).\nAn assignment of categorical carcinogenic activity based on minimal evidence for or against activity. […] Associated TD50 values and tumor site details for the relevant species/sex experiment supporting this overall CPDBAS SingleSiteCall are provided in the full CPDBAS DSSTox file (see Comment) and the corresponding CPDBAS Species Bioassay in PubChem.", "note": "Certain results were filed several times, with different values. Only these are listed.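 The calls were made as follows: active = a tumor-causing dose value with its tumor site reported for any sex and species group of a rodent or other animal cancer study; inconclusive = only studies judged inadequate by the national testing program; inactive = tested in at least one study, none positive.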 An entry can have further records. Results that share an entry are repeats across runs, samples, wells, individuals or studies. A tag in brackets gives the origin of a value. A, B and so on number the origins entry by entry. Marks such as (2×) stand for listed records that agree.", "data": [{"smiles": "ClC1C(Cl)C(Cl)C(Cl)C(Cl)C1Cl", "note": "(stereo not drawn)", "values": [{"measurement": "outcome", "value": "active (3×) and active; inactive [separate samples]"}]}, {"smiles": "Brc1c(Br)c(Br)c(Oc2c(Br)c(Br)c(Br)c(Br)c2Br)c(Br)c1Br", "values": [{"measurement": "outcome", "value": "active [sample A] and inactive [sample B]"}]}, {"smiles": "CC(=O)OC1CC(C)OC(C)O1", "note": "(stereo not drawn)", "values": [{"measurement": "outcome", "value": "active [sample A] and inactive [sample B]"}]}, {"smiles": "CNc1ccc(N(CCO)CCO)cc1[N+](=O)[O-]", "values": [{"measurement": "outcome", "value": "active; inactive [sample A] and active [sample B]"}]}, {"smiles": "CC(=O)O[C@]1(C(C)=O)CC[C@H]2[C@@H]3C=C(Cl)C4=CC(=O)CC[C@]4(C)[C@H]3CC[C@@]21C", "values": [{"measurement": "outcome", "value": "inactive; active [sample A] and inactive [sample B]"}]}, {"smiles": "C#C[C@]1(OC(C)=O)CC[C@H]2[C@@H]3CCC4=C[C@@H](OC(C)=O)CC[C@@H]4[C@H]3CC[C@@]21C", "values": [{"measurement": "outcome", "value": "inactive [sample A] and inactive; active [sample B]"}]}, {"smiles": "S=C([S-])NCCNC(=S)[S-].[Zn+2]", "values": [{"measurement": "outcome", "value": "inactive [sample A] and active [sample B]"}]}, {"smiles": "CCCCOCCOCCOCc1cc2c(cc1CCC)OCO2", "values": [{"measurement": "outcome", "value": "active [sample A] and inactive [sample B]"}]}, {"smiles": "C#C[C@]1(O)CC[C@H]2[C@@H]3CCC4=C(CCC(=O)C4)[C@H]3CC[C@@]21C", "values": [{"measurement": "outcome", "value": "active [sample A] and inactive; active [sample B] and inactive [sample C]"}]}, {"smiles": "CN(C)C(=S)SSC(=S)N(C)C", "values": [{"measurement": "outcome", "value": "inactive; active [sample A] and inactive [sample B]"}]}, {"smiles": "Oc1c(Cl)c(Cl)c(Cl)c(Cl)c1Cl", "values": [{"measurement": "outcome", "value": "active [sample A] and active; inactive [sample B] and active; inactive [sample C]"}]}, {"smiles": "Cc1cccc(C)c1", "values": [{"measurement": "outcome", "value": "active; inactive [sample A] and inactive [sample B]"}]}, {"smiles": "C=CC(=C)Cl", "values": [{"measurement": "outcome", "value": "active; inactive [sample A] and inactive [sample B]"}]}]}
